Our source for the GI50 and TGI values is PubChem BioAssay (NCI).

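These data come from cells grown in 96-well plates and exposed to compound for 48 hours at five concentrations. Here, GI50 denotes the concentration required for 50% inhibition of growth. The concentration for full growth arrest is given as TGI.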 Peptide text beside a SMILES is read from it. * marks the point of attachment. Ethyl(2-NMe3+) = C[N+](C)(C)CC*; Boc = CC(C)(C)OC(=O)*

The test has as its system NCI-H322M lung. Put plainly: DTP human tumour cell line panel, 48 h.

As to `COc1cccc2c1C(=O)c1c(O)c3c(c(O)c1C2=O)C[C@@](O)(C(=O)CO)C[C@@H]3O[C@H]1C[C@H](N)[C@@H](O)[C@H](C)O1`, the GI50 (in general, the concentration that inhibits growth by half) is 1.42 µM and the TGI (in general, the concentration giving total growth inhibition) worked out at 10 µM.
`C/C=C1/CCC2c3[nH]c4ccccc4c3CCN2C1` (centres undefined) returned a TGI greater than 100 µM.
As for `COC(=O)[C@@H](NC(=O)N(CCC#N)CCCN(C(=O)N[C@H](Cc1ccccc1)C(=O)OC)c1ccccc1)C(C)C`, the TGI is greater than 100 µM.
The same measure, in the same setting: with `COC(=O)NC12CC3CC(CC(F)(C3)C1)C2` the figure was greater than 100 µM; with `C=CC[C@@]1([C@H](C=C)COCc2ccc(OC)cc2)CC[C@]2(C)OC(C)(C)[C@@H](c3ccccc3)N2C1=S`, greater than 100 µM; with `COc1cc([C@H]2CC(=O)C[C@H](c3cc(OC)c(OC)c(OC)c3)C23C(=O)c2ccccc2C3=O)cc(OC)c1OC`, greater than 100 µM.
Take `CCOc1cc2c(cc1O)CC[C@@H]1[C@@H]2CC[C@]2(C)C(N)CC[C@@H]12` (some centres undefined): the TGI was 21.2 µM.
Same read-out and setting: with `CCN(C(C)=O)c1cnc(/C=N/NC(N)=S)c2ccccc12` the figure was 30.9 µM.
On to `COc1ccc(/C=C(\C#N)n2nnc3ccccc32)cc1`, for which the GI50 was 0.527 µM and the TGI is greater than 35.3 µM.
On the same counts, the results for `Oc1ccccc1CNCC12CC3CC(CC(C3)C1)C2` are 44 µM and greater than 100 µM.
Take `O=C(NC1C=Nc2ccc([N+](=O)[O-])cc2NC1=O)c1cc(Cl)cc([N+](=O)[O-])c1` (centres undefined): the TGI is greater than 100 µM.
On the same count and under the same terms, with `c1ccc2c(c1)cc1c3[nH]c4ccccc4c3ccn21` the figure was greater than 10 µM.
Same read-out and setting: with `CC(C)c1c(O)ccc2c1CCC1C(C)(C)CCCC21C` (centres undefined) the figure was 32.1 µM; with `CC(C)(C)c1ccc(-n2c3nc(=O)n(-c4ccccc4CO)c(=O)c-3cc3ccccc32)cc1`, greater than 100 µM; with `Nc1ccc(CCSSCCc2ccc(N)cc2)cc1`, 28.1 µM.
On the same count and under the same terms, with `O=C(O)CCc1cccc2c1oc1c(CCC(=O)O)cccc12` the figure was greater than 100 µM.
`Cc1c(Cl)c(S(N)(=O)=O)cc2c1NC=NS2(=O)=O` registered a TGI greater than 100 µM.
As to `O=C(O)CCC(NC(=O)c1ccccc1)C(=O)O` (centres undefined), the TGI was greater than 100 µM.
Take `Cc1ccc2c(c1)CC1(Cc3c(C)cccc3C1=O)C2=O` (centres undefined): the TGI was greater than 100 µM.
Still for that read-out and setting: with `CC(C)(C)OC(=O)NC(CCC(=O)OCc1ccccc1)C(=O)NCCCO` (centres undefined) the figure was greater than 100 µM.
In turn, `COc1ccc2c(c1)-c1[nH]c3ccc(OC)cc3c1CC2` returned a TGI of 31.1 µM.
The same measure, in the same setting: with `COC(=O)C(Cc1ccc(Oc2cc(CC(NC(=O)c3ccccc3)C(=O)OC)ccc2OC)cc1)NC(=O)c1ccccc1` (centres undefined) the figure was 79.8 µM; with `O=C(c1ccccc1)[C@@H]1C[C@H](Sc2ccccc2)c2cc(Cl)ccc2N1`, greater than 100 µM; with `Cc1cc(Cc2cc(C)cc(C(C)(C)C)c2O)c(O)c(Cc2cc(C)cc(C(C)(C)C)c2O)c1`, 9.68 µM.
Take `O=C1C2C=CC(C2)C(c2ccc(O)cc2)N1O` (centres undefined): the TGI was greater than 100 µM.
On the same count and under the same terms, with `Cn1c(Cl)cn2c3nc4ccccc4nc3c(=O)c(C#N)c12` the figure was greater than 100 µM; with `Nc1[nH]c(=S)c2c(N)n[nH]c2c1C(=O)Nc1ccccc1`, greater than 100 µM.
As for `Nc1ccc(S(=O)(=O)Nc2ccc(Nc3c4ccccc4nc4ccccc34)cc2)cc1`, the TGI amounted to 18.5 µM.
Turning to `O=c1n(-c2ccccc2)c(=O)n2n1C1Cc3ccccc3C12` (centres undefined), the TGI was greater than 100 µM.
Same read-out and setting: with `Cc1ccc([N+](=O)[O-])cc1NC(=O)c1cccc([N+](=O)[O-])c1O` the figure was 95.3 µM.
On to `CCCCCCCCCCC(C(O)c1ccccc1)N1CCCCC1` (centres undefined), for which the GI50 was 2.26 µM and the TGI was found to be 6.24 µM.
`CCCC/C=C1\CCC(C)(CN(C)C)C1=O` (centres undefined): the TGI was greater than 100 µM.
Same read-out and setting: with `CC(=O)c1cccc(Nc2nc3ccc(Cl)cc3c3[nH]c4ccccc4c23)c1` the figure was greater than 100 µM; with `CC(C)C(Sc1nc(-c2ccccc2)c(-c2ccccc2)[nH]1)C(=O)NN` (centres undefined), greater than 100 µM; with `Fc1ccccc1C1SCc2nc3ccccc3n21` (centres undefined), greater than 100 µM.
On the same count and under the same terms, with `COc1cc(/C=C2\C(=O)N(c3ccccc3Cl)C(c3ccccc3)S2(=O)=O)cc(OC)c1OC` (centres undefined) the figure was greater than 100 µM.
Regarding `CC(NCCC(=O)N(CCC(=O)N(CCC(=O)N(CCC(=O)N(CCC(=O)N(CCC(=O)N(CCC(=O)N(CCC(=O)N(CCC(=O)N(CCC(=O)O)[C@H](C)c1ccccc1)[C@H](C)c1ccccc1)[C@H](C)c1ccccc1)[C@H](C)c1ccccc1)[C@H](C)c1ccccc1)[C@H](C)c1ccccc1)[C@H](C)c1ccccc1)[C@H](C)c1ccccc1)[C@H](C)c1ccccc1)c1ccccc1` (some centres undefined), the GI50 is 10.3 µM and the TGI is greater than 75 µM.
The molecule `COCn1cnc2c(=O)n(-c3ccc(OC)cc3)c(=S)n(-c3ccc(OC)cc3)c21` displayed a TGI greater than 100 µM.
Same read-out and setting: with `Nc1ncnc2c1ncn2C1OC(CO)C(O)C(O)C1O` (centres undefined) the figure was greater than 100 µM; with `NC1CC(Cl)c2c(Cl)sc(Cl)c21` (centres undefined), greater than 100 µM.
For the molecule `COc1ccc(/C(=N\O)c2cc(C)c(OC)c(C)c2)cc1O`, the GI50 was 0.0297 µM and the TGI was greater than 100 µM.
On to `OC(c1cc(-c2ccc(Cl)cc2)nc2ccccc12)C1CCCCN1` (centres undefined), for which the TGI amounted to 6.46 µM.
The same measure, in the same setting: with `O=C1CCCC1C(O)(C(F)(F)F)C(F)(F)F` (centres undefined) the figure was greater than 100 µM.
For the molecule `CN(C)CCCNc1c(C#N)[n+]([O-])c2cc(Cl)ccc2[n+]1[O-]`, the TGI is greater than 92.3 µM.
Still for that read-out and setting: with `COc1ccc(N2C(=O)C3c4[nH]c5ccccc5c4C4CC(C)CC(C)C4C3C2=O)cc1` (centres undefined) the figure was greater than 100 µM.
As to `CC(NC(=O)C(Cc1ccc(OCC[N+](C)(C)C)cc1)NC(=O)OC(C)(C)C)C(=O)NC(Cc1ccccc1)C(=O)NCC(N)=O` (centres undefined) (Boc-Y(Ethyl(2-NMe3+))AFG-NH2; configuration not given here), the TGI amounted to 51.2 µM.
Turning to `O=C(O)NCC1CCCCC1` (tested in a mixture with another compound), the TGI is greater than 100 µM.
As to `Cc1cc(NCc2cc(Nc3ccnc4cc(Cl)ccc34)ccc2F)nc(N2CCN(C)CC2)n1`, the GI50 is 2.41 µM and the TGI was determined as 7.63 µM.
The molecule `CC(=O)N(C(C)=O)n1c(-c2ccccc2)n[nH]c1=O` displayed a TGI greater than 100 µM.
As for `FC(F)(F)c1ccc(C#Cc2ccccc2C#Cc2ccccc2)cc1`, the GI50 was 86.2 µM and the TGI is greater than 100 µM.
In the case of `Cc1c(C(=O)CC(=O)C(=O)Nc2ccc(Cl)cc2)[n+](=O)c2ccccc2n1[O-]`, the TGI is greater than 100 µM.
The same measure, in the same setting: with `S=C1CSc2c(ccc3ccccc23)N1` the figure was greater than 100 µM.
With `Cc1cc2[nH]c(=O)c3c4ccccc4cn3c2cc1C`, the GI50 is 16.7 µM and the total growth inhibition concentration (TGI) was found to be 30.4 µM.
Regarding `COc1ccc(C(=O)O)c2c(=O)c3cccnc3[nH]c12`, the TGI is greater than 100 µM.
The same measure, in the same setting: with `CC1=C(C(=O)N(C(C)C)C(C)C)CC(C(=O)N(C(C)C)C(C)C)=C(C)N1` the figure was greater than 100 µM.
On the same count and under the same terms, with `O=C1CCCC(=O)N1CCc1c[nH]c2ccccc12` the figure was greater than 100 µM.
`COc1cc2c(cc1OCCCCCOc1ccc(-n3c(C)nc4ccccc4c3=O)cc1)N=C[C@@H]1CCCN1C2=O`: the 50% growth inhibitory concentration (GI50) is 0.374 µM and the TGI came out at 1.43 µM.
Molecule `CC(C)(C)NCC(O)c1ccc(O)c(CO)n1` (centres undefined) returned a TGI greater than 100 µM.
Consider `N#Cc1cc(-c2nc3c(F)cccc3s2)ccc1N`, for which the TGI is greater than 100 µM.
`COc1ccc2c(c1)Oc1cc(O)ccc1[C@@H]2c1ccccc1C(=O)NC(C)c1ccccc1` (some centres undefined): the TGI was 29.6 µM.
Molecule `CN(Cc1cccc2ccccc12)Cc1cccc2ccccc12` registered a concentration for total growth inhibition (TGI) greater than 100 µM.
As to `CC1=C(C)C1[N+](=O)[O-]`, the TGI is greater than 100 µM.
Take `N#Cc1ccc(C(=O)/C=C/c2ccc(O)c(O)c2)cc1`: the TGI was 29.8 µM.
`CC(C)(C)OC(=O)N1CCC2(C)CC(=O)CC=C12` (centres undefined) had a TGI greater than 100 µM.
For the molecule `COc1cccc(OCCCN)c1-c1cc(Nc2cnc(C#N)cn2)n[nH]1`, the GI50 was 0.0168 µM and the TGI came out at 11.1 µM.
In turn, `C1CSC(=[N+]2CC[N+](=C3SCCS3)CC2)S1` had a TGI greater than 100 µM.
`NC(CCC(=O)NC(CSC(=O)N(O)c1ccccc1)C(=O)NCC(=O)O)C(=O)O` (centres undefined) came in with a TGI greater than 1000 µM.
For `CC(C)COCC(CN(Cc1ccccc1)c1ccccc1)N1CCCC1` (centres undefined), the GI50 was 8.42 µM and the TGI is 21.1 µM.
`COC(=O)C1(C(=O)OC)Cc2ccc(C)cc2C2=C1C(=O)c1ccccc1C2=O` had a TGI greater than 100 µM.
Consider `Cc1c2c(Cl)c3c(c(Cl)c2c(C)c2c(Cl)c4c(c(Cl)c12)C(c1ccccc1)(c1ccccc1)C4(c1ccccc1)c1ccccc1)C(c1ccccc1)(c1ccccc1)C3(c1ccccc1)c1ccccc1`, for which the TGI is greater than 100 µM.
On the same count and under the same terms, with `CN(N)/N=N/c1nc[nH]c1[N+](=O)[O-]` the figure was greater than 100 µM; with `N=[N+]=CC(=O)CCC(NC(=O)C(CCC(=O)C=[N+]=N)NC(=O)CCC(N)C(=O)O)C(=O)O` (centres undefined), greater than 100 µM.
Still for that read-out and setting: with `O=C(NCCCCCCNC(=O)OCCSCCn1cc(C(=O)NC(=O)OCc2ccccc2)c(=O)[nH]c1=O)OCCSCCn1cc(C(=O)NC(=O)OCc2ccccc2)c(=O)[nH]c1=O` the figure was greater than 100 µM.
On to `O=C(c1ccccc1)C(Br)C(Br)c1cccc([N+](=O)[O-])c1` (centres undefined), for which the GI50 is 15.3 µM and the TGI stood at 28.9 µM.
On to `CN(C(=O)C1CCCCCC1=O)c1ccccc1Cl` (centres undefined), for which the TGI was greater than 100 µM.
As to `CNC(=O)CC1NC(=O)c2csc(n2)-c2ccc(-c3nc(C4=NC(C(=O)N5CCCC5C(N)=O)CO4)cs3)nc2-c2csc(n2)-c2csc(n2)C(C(C)C)NC(=O)CNC(=O)c2csc(n2)C(C(C)C)NC(=O)c2nc1sc2C` (centres undefined), the GI50 is greater than 25 µM and the TGI was greater than 25 µM.
`C/C(=N\NC(=S)N1CCN(C)CC1)c1nc2ncccc2[nH]1` yielded a concentration for total growth inhibition (TGI) greater than 100 µM.
On the same count and under the same terms, with `c1ccc2cc3[s+]snc3cc2c1` the figure was greater than 100 µM.
On the same count and under the same terms, with `COC(=O)c1cc2cc3c(c(O)c2c(=O)o1)O[C@@]1(Oc2c(O)c4c(c(O)c2[C@H]1OC1CC(OC)C(O)C(C)O1)C(=O)C=C(OC)C4=O)[C@H](O)C3` (some centres undefined) the figure was 12.8 µM.
Consider `O=S(=O)(c1cccc2c(Cl)cccc12)N1CCCNCC1`, for which the GI50 was 11.4 µM and the TGI came to 23.8 µM.
`COc1cccc2c1/c(=C/c1ccc(N(C)C)cc1)c1cc(-c3ccccc3)[n+](C)n12` came in with a TGI of 1.51 µM.
For the molecule `COC(=O)CN1SC2(SC13C(C)(C)C(=O)C3(C)C)C(C)(C)C(=O)C2(C)C`, the TGI was greater than 100 µM.
Still for that read-out and setting: with `CCN(CC)c1c(-c2c(N(CC)CC)c(OC(C)=O)c3sccn3c2=O)c(=O)n2ccsc2c1OC(C)=O` the figure was greater than 100 µM.
Still for that read-out and setting: with `Cc1sc2nc(-c3ccc([N+](=O)[O-])cc3)c(/C=N/N=C(N)N)n2c1C` the figure was 2.73 µM.
